Experimental data taken from PMC4242493.
This is one part of the list. The list includes weakly bound sequences.

molecular target: MaxL homodimer (UniProt P61244); assay: universal protein-binding microarray (PBM); details: PBS-based mixture, 10 nM His-tagged protein dimer, 2% milk, 200 ng/uL BSA, 50 ng/uL salmon testes DNA, 0.02% TX-100; detection with Alexa 488 anti-His …; high values mean tight binding; most listed sequences are background and not binding sites; double strand, one strand shown
UniProt P61244, sequence (P61244 whole entry): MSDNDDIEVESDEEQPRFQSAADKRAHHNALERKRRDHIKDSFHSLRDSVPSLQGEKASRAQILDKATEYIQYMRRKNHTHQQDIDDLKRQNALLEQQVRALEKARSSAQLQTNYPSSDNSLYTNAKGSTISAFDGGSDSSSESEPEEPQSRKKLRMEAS

Sequence	binding signal (normalized occupancy)
CGTACGTA	0.0802
CAGCAATC	0.0708
CGGTGGAC	0.0705
CTCCGTTC	0.0678
CGACAGAC	0.0744
ACACCCGC	0.0772
ACCTTTGG	0.068
GTAAATGA	0.0763
CCATGCGA	0.1
CGCACCAC	0.0841
AATGCGCG	0.0754
GCGCCATA	0.0749
ACAGAGAG	0.0712
CCAACGAG	0.0824
CTCACAGA	0.071
CTTAAGCC	0.0672
AAGGTCTG	0.074
GCAGATGA	0.0781
ACTGGAGA	0.0692
ATACAAGC	0.0777
ATATAAAA	0.0719
CCAACGTA	0.0759
CAGTCACA	0.081
AGTAAGGG	0.0786
AACGAATG	0.0784

Sequence	binding signal (normalized occupancy)
CAACTGGG	0.0705
CCTATCCG	0.0805
GTTACAAA	0.0761
GAACCAGC	0.0718
GTTGTTAA	0.0782
GTATATCA	0.0787
AAGGATGC	0.0729
GCACCACC	0.0789
CCCCACGC	0.0979
ACACGGTA	0.0853
ACGTTTTA	0.0808
TTAACTAA	0.0752
GCATGGCA	0.102
TCGGGGCA	0.0799
CGAATGCC	0.0759
ACATACGC	0.0812
TAATCCAA	0.0842
CGCTATGA	0.0755
GCCATTAA	0.074
CCTTGCAA	0.0714
GCGTCGTA	0.0758
ACTCGCGG	0.0757
AGGAGCGA	0.0703
CTCTAGCA	0.0773
ATAGAGAC	0.0767

Sequence	binding signal (normalized occupancy)
GACAGCTC	0.0685
AACCAGAA	0.0757
AGGAGCTA	0.0748
AGACATTA	0.0819
ACTTATTA	0.0825
CGATCACG	0.0845
ATACCCTG	0.0741
CTATGTCA	0.0757
TAGGGGGA	0.0765
CCTCCGTA	0.0769
AAAAAGAC	0.0722
AATGTGAG	0.0853
TCAGACCA	0.0809
CATTGCGG	0.0847
ATACGTGA	0.081
ATGGTTCA	0.085
CGGATGCA	0.0758
GGCGATGA	0.0788
AGACACGA	0.0855
CGTACCTA	0.0757
CCGTACCA	0.0721
ATAAATTG	0.0786
ACGTCACT	0.0708
GACGTGCA	0.0797
AAATATAG	0.0837

Sequence	binding signal (normalized occupancy)
CCTTAAAA	0.0718
GGTGAGGA	0.0737
GGGATAAC	0.0824
AGTAGTAC	0.0803
CCTGCGCC	0.0696
GGAATTCC	0.0713
GTAGCTTA	0.0706
GGGCCTGA	0.0698
CTTCGTCA	0.0783
GCCTACAA	0.075
TCAGGGGA	0.078
GCGATAAC	0.0707
ACGTCTAG	0.0746
CGTCGTTC	0.073
ACAAACAG	0.0755
CCTAAAGA	0.0749
AATACGAG	0.0786
AGTATGCC	0.0744
TATCGTGA	0.0827
ATGATAGA	0.081
AACACCTT	0.0733
CACCTGAA	0.0797
CGAGAATA	0.0809
TCAGGCGA	0.0727
ACCTTCTA	0.0743

Sequence	binding signal (normalized occupancy)
ACCGCTGA	0.0726
ACCCTGTG	0.0803
TATTTGAA	0.0755
ATTTGCTG	0.0711
ACACGGTG	0.0873
ATGCCTAA	0.0774
CTGTAGTA	0.0854
CCCAATTC	0.0786
GTTATCCA	0.0826
AAGTAGAG	0.0757
ACGAGAAC	0.0879
GAGGGACC	0.0721
CTTCCTTA	0.0844
CGCGTGTA	0.123
ATTATACG	0.0765
AAAACCGG	0.0676
AGGCAACC	0.0731
CTTCAGTC	0.0722
CGCACGAG	0.107
CGAACTAG	0.0685
ACCTCCCG	0.0756
GCTCGGAA	0.0677
CTTCCCAC	0.0765
GCTCGACA	0.0649
AGCCACCT	0.0768

Sequence	binding signal (normalized occupancy)
CCACCCCC	0.0922
GGGGACAA	0.077
GGTTCAAA	0.0691
GATTTAAA	0.0717
CAAATGTG	0.0879
ATCACCAA	0.0777
CGGACACC	0.0749
GTACCCTA	0.0755
GACTCTAA	0.0823
ACGGCCGA	0.0666
CCATGAAA	0.08
AGGTAACA	0.0823
ATGGACGC	0.0695
TATGTCCA	0.0796
GTGCCCTA	0.0772
CCATACCG	0.0846
CAGTAGTA	0.0753
CCTCATCA	0.0833
AGCACCTG	0.0844
CAAAGAGG	0.0732
AAAGCAGC	0.0688
ATCGTATC	0.0783
GCATCTAA	0.0781
CATTCAGG	0.0758
CCCCGCGC	0.0778

Sequence	binding signal (normalized occupancy)
TAAAATCA	0.0744
AAATACCA	0.078
CGAGTACA	0.0727
ACTTCTCA	0.0786
ACGGATGG	0.078
CTCCAAAA	0.0786
TCCTGAAA	0.0737
AACCGTCA	0.0747
TAACGAGA	0.0745
ACCTTTTG	0.0756
GAATCTGC	0.075
CTACTAAG	0.0755
CCACTTAC	0.077
CAACTAGG	0.0717
CCCCAGCA	0.0815
ATTCAGGG	0.0745
AGACCACT	0.074
AGGTAACC	0.0749
AAAAGATT	0.0766
TCCGGTCA	0.0722
AAAATAGA	0.0755
AGACGAGC	0.0621
